Patent US20210145806A1, “Methods of Treating Brain Cancer and Related Diagnostic Methods” (Emory University, priority 2019, published 2021)

Assays:
[1] = test system: SHH activated MB cells (DAOY, UW228 and ONS-76); test: Proliferation of SHH activated human MB cells (mean/composite of all lines); conditions: read-out: IC50, inhibition of proliferation
[2] = test system: SHH-activated MB cells (DAOY, UW228 and ONS-76); test: Soft agar colony formation assay (CFA); conditions: for concentration at which colony formation is inhibited: composite of DAOY, UW228, ONS-76, compared to vehicle control

| Structure (SMILES) | IC50 [1] | inhibition of colony formation, in words [2] | concentration at which colony formation is inhibited [2] |
| --- | --- | --- | --- |
| O=c1c(O)c(-c2ccc(O)c(O)c2)oc2cc(O)ccc12 [fisetin, 2-(3,4-dihydroxyphenyl)-3,7-dihydroxy-4H-chromen-4-one] | 3.8 µM | inhibited colony formation |  |
| CC(NC(=O)C(C#N)=Cc1cccc(Br)n1)c1ccccc1 (centres unmarked) [WP1066, 3-(6-bromopyridin-2-yl)-2-cyano-N-(1-phenylethyl)acrylamide] |  | inhibited colony formation | ≥ 1.5 µM |
| N.N.[Cl][Pt][Cl] [cisplatin] |  |  | ≥ 2 µM |
